In the supplement of paper PMC11417369:
± gives the standard deviation of the averaged measurements. This is one part of the list.

What follows are sequences tested on PfAP2-LT AP2 domain (GST-tagged) (assay: gcPBM binding intensity (ln(normalized median fluorescence intensity)); higher = stronger DNA binding).
Method in brief: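 For binding intensity, the highest Masliner-normalised natural-log median intensity across replicate spots of either probe orientation was taken. Protein bound to the array was stained with Alexa488 anti-GST antibody and scanned at 488 nm. The protein, GST-tagged P. falciparum DNA-binding domains from E. coli at about 25 μg on average, had been applied for 1 h to an Agilent 4 × 180k array of primer-extended double-stranded 36-bp intergenic genomic probes and negative controls.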

In order of rising “gcPBM binding intensity (ln)” value:
1. TTTCTTAAATATATTGAGGAATAAAAAGAAGAAAAG [GTGCAC_negctrl_site281]  8.33 ± 0.4
2. TTCTTATCAAGAGAAAGTACATAAAAAATTAATAAG [XGTACX_site1821]  8.39 ± 0.49
3. TTGGATTTTCCATAATGTACACATAAAAGTGTTACA [XGTACX_site4544]  8.46 ± 0.38
4. TTATGAAAAATAAAATTAGAAAAAAAGGAAAATGAA [XGTACX_negctrl_site232]  8.49 ± 0.35
5. AGGAGGTCAGTTCACAGTACCCAGAAAACTCTACGA [XGTACX_site1992]  8.61 ± 0.52
6. TCTTGACGAAGTAGAAGGATATATATATAAAAAAAA [CACACA_negctrl_site641]  8.63 ± 0.54
7. AGAATAATAAAATGGGTGCAATAGTTTTTTTTTTTT [GTGCAC_site9823]  8.76 ± 0.48
8. TCCAGGTATTTATTCTGTACACATAAAACATTTTAT [XGTACX_site8472]  8.77 ± 0.46
9. AACCATATTTAGATTACACACAGTTTAAATATTTTA [CACACA_site6712]  8.78 ± 0.42
10. AATTTGTTATGTATATGTACATAAATAGATATATGA [XGTACX_site3930]  8.8 ± 0.49
11. TCGTCTCTTCTTGTTCTGTTTTAGAAGGCTATATAT [CACACA_negctrl_site180]  8.88 ± 0.44
12. TGGTATATATTTCCTTGTACATATAATATATATTGT [XGTACX_site3961]  8.94 ± 0.51
13. AATGTAGGTTTATTTACACACAAATATAAATATATA [CACACA_site1523]  8.95 ± 0.45
14. TAATATAGTATAGTATGTACATATAATTAGAATATT [XGTACX_site4053]  8.96 ± 0.63
15. ACAGTATCTGGTAGCTGTACGGATTGTAGAGAGTAG [XGTACX_site4872]  9.01 ± 0.46
16. TATTAAAGGGGTTTCACACACATGTATAATTAATTT [CACACA_site200]  9.04 ± 0.45
17. TGTTGTTACATATATACACACATATATATATTATAT [CACACA_site2397]  9.11 ± 0.4
18. ATATATATATATATATGTACATATTTTAATAATTAA [XGTACX_site8549]  9.18 ± 0.12
19. ATAAACTGATGTGTATGTACACATGTAATAATAAAT [XGTACX_site7649]  9.21 ± 0.6
20. CAAAACCTACATAACATACACACGCATATATAGAAT [CACACA_site2846]  9.35 ± 0.28
21. CATGCAATATTAAACACACACTCATATAGCACAATA [CACACA_site6182]  9.37 ± 0.45
22. CCAACAAAAATAAGCACACACAAATATACATACATA [CACACA_site3606]  9.62 ± 0.45
23. AATATGAACAGACACACACACACAAAAAAAAAAAAA [CACACA_site2012]  9.9 ± 0.56
24. CGCGCACACGGACACACACACACACGGATATAAATA [CACACA_site7102]  10 ± 0.4
